From PubChem BioAssay AID1963576 (National Center for Advancing Translational Sciences (NCATS), 2024)
Among all 46,000 compounds or so, about 60 (0.1%) were called active. Another 3% or so got no clear call; they are omitted. Calls come from the whole dose curve; as a rule, active = well fitted inhibition curve with a large enough effect; inconclusive = small, poorly fitted or top-dose-only effect; inactive = no such curve, though single readings can be large or run the other way. Some of the results follow.

Test: Primary qHTS assay for Inhibitors of ovarian cancer metastasis using an organotypic tumor microenvironment (TME) model.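 For activity change, negative = inhibition: plate controls were DMSO wells for no effect and tomatine positive control wells for full effect.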 Note: nearly all actives have a fitted effect of over 65% in size.
Details: SKOV3ip1-GFP adhesion/invasion on 3D omental model, fluorescence; series mostly up to 45.8 µM; activity change, negative = inhibition: at the top concentration
In short: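 A 3D layer of primary human omental fibroblasts, mesothelial cells, fibronectin and collagen I, grown 48 hr, received SKOV3ip1-GFP cells in serum-free medium plus compounds at 0.36-46 umol/L. After 2 hr RT and 16 hr 37 C, fixed adherent GFP cells were counted; normalized to DMSO and tomatine.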

Activity change, negative = inhibition, inactive:
CCOC(=O)c1cc(S(=O)(=O)N2CCN(c3cccc(C)c3C)CC2)[nH]n1 15.3%
CCCS(=O)(=O)c1ncc(Cl)c(C(=O)Nc2c(C(=O)Nc3ccccc3)oc3ccccc23)n1 -12.2%
Cc1ccc(-n2ncc(C(=O)NC3CCCCC3)c2C2CCN(C(=O)OC(C)(C)C)CC2)cc1 -3.81%
CCN(c1ccccc1C)S(=O)(=O)c1nnc(NC(=O)c2ccco2)s1 7.54%
COc1ccc(N(C)C(=O)c2cc3c(s2)-c2c(C)cccc2OC3)c(OC)c1 11.5%
COc1ccc(CNc2nc3c(-c4cccc(F)c4)nnn3c3ccccc23)cc1 22%
O=C(Nc1cccnc1)c1cc(-c2ccc(Cl)cc2)on1 -12.3%
O=C(Cn1cccc1C(=O)c1ccccc1)NCc1ccccc1Cl 5.22%
O=C(c1ccc2c(c1)N(Cc1cccc(F)c1)C(=O)c1ccccc1S2)N1CCC2(CC1)OCCO2 5.49%
CCc1ccc(-n2c(=O)c3sc4ccccc4c3n(CC(=O)NCc3ccccc3)c2=O)cc1 22.5%
COc1ccc(C2=C(N3CCN(c4cc(C)ccc4C)CC3)c3ccccc3C2=O)cc1 6.27%
COC(=O)c1cc2sccc2n1CC(=O)Nc1ccc(OC)c(OC)c1 -12.4%
Cc1ccc(C)c(CN2CCCN(CC(=O)Nc3ccc(C)c(C)c3)S2(=O)=O)c1 3.45%
Cc1ccc(S(=O)(=O)NCc2nc3nc(C)cc(C)n3n2)cc1 0.821%
Cc1cccc(C)c1OCC(=O)NC(Cc1c[nH]c2ccccc12)C(=O)O (centres undefined) 3.5%
CS(=O)(=O)Nc1ccc([N+](=O)[O-])cc1Oc1ccccc1 -13.3%
Cc1ccc(-n2c(=O)c3c4c(sc3n(CC(=O)Nc3cccc(Cl)c3)c2=O)CCCCC4)cc1C -9.23%
CCn1cc(C(=O)O)c(=O)c2cc(F)c(N3CCNC(C)C3)c(F)c21 (centres undefined) -16.3%
Cn1cc(C(=O)NCc2ccccc2Cl)c(=O)c2cc(S(=O)(=O)N3CCCCCC3)ccc21 31.6%
CCOC(=O)c1c(S(=O)(=O)N2CCC(C(=O)N3CCN(c4ccccc4F)CC3)CC2)c(C)n(C)c1C 1.52%
COc1cc(Cl)c(C)cc1NC(=O)CCc1nc2cccnc2n1Cc1cccs1 1.06%
Cc1cccc(Cn2c(SCc3ccc(C(=O)NC4CCCC4)cc3)nc3cccnc32)c1 3.55%
CCOC(=O)c1ccc(NC(=O)CCCn2c(=O)c3cccn3c3cccnc32)cc1 -3.83%
CC(C)N(Cc1ccccc1)C(=O)Cn1ncc2c3ccccc3n(Cc3ccccc3)c2c1=O 4.55%
COc1ccc(CCNC(=O)c2cn(C)c3ccc(S(=O)(=O)N4CCOCC4)cc3c2=O)cc1OC 17.3%
CN(Cc1ccccc1)C(=O)CCS(=O)(=O)c1ccc2c(c1)oc(=O)n2C -9.01%
O=C(CSc1ccccc1)NCc1ccc2c(c1)CCN2C(=O)c1ccccc1 6.42%
COc1cccc(-c2noc(CCCC(=O)NCc3ccco3)n2)c1 -5.6%
COc1ccc(OC)c(S(=O)(=O)NCC(c2ccco2)S(=O)(=O)c2ccccc2)c1 (centres undefined) -12.8%
COc1ccc(CC2=NN3C([C@@H](CCc4ccccc4)[C@@H](C)O)=NC(C)C3C(=O)N2)cc1OC (some centres undefined) -8.93%
COc1ccc(OC)c(CNC(=O)c2ccc(NC(=O)c3nsc4ccccc34)cc2)c1 8.27%
COc1ccccc1N1CCN(Cc2nnc(-c3ccccc3C)o2)CC1 6.02%
O=S(=O)(Nc1ccc(C(F)(F)F)cc1)c1ccc2c(c1)OCCO2 -7.13%
O=C(NCCCc1nc2ccccc2n1Cc1cccc(Cl)c1)C1CCCCC1 -0.342%
O=C(c1ccc2c(c1)N(Cc1ccc(Cl)cc1)C(=O)c1ccccc1S2=O)N1CCC(Cc2ccccc2)CC1 (centres undefined) 16.6%
CCOC(=O)c1cccc(NC(=O)c2ccc3nc(CCc4ccccc4)oc3c2)c1 -1.42%
COCCCn1c(=O)c2sccc2n2c(CCCC(=O)Nc3cccc(C(F)(F)F)c3)nnc12 22%
CC1=C(C(=O)Nc2ccccc2)C(c2ccc[nH]2)n2ncnc2N1 (centres undefined) -1.84%
CCCCOC(=O)c1ccc(NC(=O)c2csnn2)cc1 5.24%
Cc1ccccc1OCC(=O)Nc1ccc2nc(SCC(N)=O)sc2c1 -6.8%
Cc1cccc(C)c1NC(=O)CSc1nc2ccccc2c2nc(CCc3c(C)n[nH]c3C)nn12 2.3%
CCCOc1ccc(C(=O)Nc2ccc3oc(-c4ccc(N(C)C)cc4)nc3c2)cc1 3.11%
Cc1c(Cl)cccc1NC(=O)Cn1nnc(-c2nc(-c3ccccc3)no2)c1N 9.49%
Cc1c(NC(=O)c2sc3ccccc3c2Cl)cccc1-c1nc2ccccc2o1 12%
COC(=O)c1ccc(NC(=O)C(=O)NCC(c2cccnc2)N2CCc3ccccc32)cc1 (centres undefined) -4.34%
CCCOc1ccc(OC(=O)c2cn(-c3ccc(OC)cc3)c(=O)c3ccccc23)cc1 -5.38%
COc1ccc(CNC(=O)C2=CC(c3cccc(OC)c3)=NS(=O)(=O)N2C)cc1 -7.17%
CC(=O)c1cccc(NC(=O)c2cc(C)nc3c2c(C)nn3-c2cccc(Cl)c2C)c1 -10.3%
CC(C)NC(=O)CN1C(=O)c2cccnc2Sc2ccccc21 27.9%
Cc1ccc(CCNC(=O)CCS(=O)(=O)c2cc3c(cc2Cl)NC(=O)CO3)cc1 37.3%
COc1cc(NC(=O)c2nc3ccccc3n(C)c2=O)cc(OC)c1OC 7.24%
COc1ccc(NC(=O)Cn2nc(C(F)(F)F)c3c2CCCC3)cc1OC -5.36%
Cc1cccc(N2CCN(C(=O)c3ccc4c(Cl)c5c(nc4c3)CCCC5)CC2)c1C -0.714%
CCOc1ccc(CNC(=O)CCS(=O)(=O)c2ccc3c(c2)oc(=O)n3C)cc1 -3.47%
CC(C)c1cc(C(=O)NCc2ccccc2)no1 3.76%
Cc1ccc(NC(=O)Cn2c(=O)n(Cc3ccc(C(=O)NCc4ccc5c(c4)OCO5)cc3)c(=O)c3ccccc32)cc1 12%
COc1ccc(NC(=O)c2csnn2)cc1 -12.8%
COC(=O)c1c(-c2ccc(Cl)cc2)noc1N1CCN(c2ccc(F)cc2)CC1 -4.75%
COc1ccc(NC(=O)Nc2nnc(N(C)C3CCCCC3)s2)c(OC)c1 0.293%
O=C(NCCc1ccccc1)c1c[nH]c2ccc(S(=O)(=O)Nc3ccccc3F)cc2c1=O 0.969%
O=C(Nc1ccc(O)c(-c2nc3ccccc3o2)c1)c1ccco1 0.437%
CCOC(=O)c1sc(NC(=O)COc2ccccc2Cl)c(C(=O)OCC)c1C 3.98%
COCCNC(=O)c1cc(Sc2ccc(F)cc2F)nc2ccccc12 -3.85%
COc1cc(OC)c(NC(=O)Nc2ccccc2OCc2cc(=O)n3cc(C)ccc3n2)cc1Cl 6.53%
CCc1ccc(S(=O)(=O)c2nnn3c2nc(NC2CCCC2)c2sccc23)cc1 -3.45%
CC(=O)N1CCN(c2ccc(OCc3nn(C)c(C)c3-c3cccc4c(CCCOc5cccc6ccccc56)c(C(=O)O)n(Cc5cccnc5)c34)cc2)CC1 -19.1%
CC1=C(C(=O)OCC2CCCCC2)C(c2c(F)cccc2Cl)CC(=O)N1 (centres undefined) 4.59%
COc1ccc(NC(=O)CN(C)S(=O)(=O)c2ccc3[nH]c4c(c3c2)CCCC4)cc1Cl -14.3%
COc1ccc(-n2ccn(Cc3ccc(C)cc3)c(=O)c2=O)cc1OC -9.43%
O=C(CSc1ccc2ccccc2n1)Nc1nsc(-c2ccc(Cl)cc2)n1 9.78%
COc1ccc(-c2noc(N3CCC(C(=O)Nc4ccc(C)c(F)c4)CC3)n2)cc1OC -13.7%
COc1ccc(CNC(=O)c2cccc(NC(=O)N3CCSc4ncccc43)c2)cc1 -9.22%
COc1ccc(Cl)cc1NC(=O)CCCn1c(C)c2cnn(-c3ccccc3)c(=O)c2c1C 10.4%

outcome, inactive:
COc1ccccc1OCC(=O)N1CCC(c2nc3ccccc3o2)CC1
COc1ccc(Nc2nnc(-c3ccc(C)c(S(=O)(=O)NCCO)c3)c3ccccc23)cc1C(N)=O
COc1ccc(-c2c(C)nn3c(C(F)(F)F)cc(-c4ccccc4)nc23)cc1OC
Cc1ccc(NC(=O)c2c(C)oc3c2C2=NCCN2C=N3)cc1F
Cc1c(Cl)cccc1NC(c1ccc(F)cc1)c1nnc(-c2ccccc2)o1 (centres undefined)
Cc1cccn2c(=O)cc(CSc3nnc(NC(=O)COc4ccccc4)s3)nc12
COc1ccc(NC(=O)C2CCN(S(=O)(=O)c3c(C)noc3/C=C/c3cccs3)CC2)cc1
COC(=O)c1ccccc1NC(=O)c1ccc(-c2nc(CSc3ccc(C)cc3)c(C)o2)cc1
CCn1cc(C(=O)NCCc2ccc(C)cc2)c(=O)c2cc(S(=O)(=O)N3CCC(C)CC3)ccc21
O=C(OCc1cc(=O)n2nc(C3CC3)sc2n1)c1ccccc1Cl
COc1cccc(-c2nn3c(=O)cc(CN4CCN(C(=O)/C=C/c5ccccc5)CC4)nc3s2)c1
CCOc1ccccc1NC(=O)C1=C(C)Nc2ncnn2C1c1cccs1 (centres undefined)
Cc1ccc(-c2nc(-c3cc4cccc(OCc5ccccc5F)c4oc3=O)no2)cc1
COc1cc(C(=O)Nc2ccc(OCc3cc(=O)n4cc(C)sc4n3)cc2)cc(OC)c1OC
Cc1ccccc1NC(=O)CSc1nc2c(oc3ccccc32)c(=O)n1-c1ccccc1F
COc1ccc(C)cc1NC(=O)CCS(=O)(=O)c1ccc2c(c1)CC(=O)N2C
COc1ccc(CCNC(=O)CCc2c(C)nc3nc(C)nn3c2C)cc1OC
COc1ccc(Cn2c(SCc3ccc(C(=O)NCc4ccccc4F)cc3)nc3cccnc32)cc1
Cc1cccc(-n2c(=O)c3c(c4cc(C)ccc4n3C)n(Cc3ccccc3F)c2=O)c1
CC(=O)N1c2nc(-c3ccco3)nn2C2(CCCCC2)[C@@H]2CCCC[C@@H]21
O=C(c1ccc2c(c1)N(Cc1ccc(F)cc1)C(=O)c1ccccc1S2(=O)=O)N1CCC(Cc2ccccc2)CC1
